# According to PubChem BioAssay AID1508642 (National Center for Advancing Translational Sciences (NCATS), 2021):
# Hit rate of the full screen: of about 43,000 compounds, about 200 (0.47%) were called active. Another 12% or so got no clear call; they are omitted. Calls come from the whole dose curve; as a rule, active = well fitted cell-killing curve with a large enough effect; inconclusive = small, poorly fitted or top-dose-only effect, or effect the other way; inactive = flat fitted curve, though single readings scatter. Some of the results follow.
# Assay: Cell viability qHTS assay in S16 Pmp22-F2sN cells; note: nearly all actives have a fitted effect of over 65% in size
# Conditions: S16 Pmp22-F2sN Schwann cells (luciferase reporters placed in the Pmp22 gene) viability, CellTiter-Glo, 24 h; series mostly up to 57.5 µM; activity change, negative = cytotoxicity: at the top concentration
# Procedure, shortened: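 Seed 500-1,000 S16 Pmp22-F2sN cells per well in phenol-red-free DMEM with 10% heat-inactivated FBS; pin-add 23 nL compound; incubate 24 h at 37C; add CellTiter-Glo, wait 15 min protected from light; read luminescence.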
# % is set by controls: 0 for no effect and ±100 for the full control effect.
row,Structure (SMILES),"activity change, negative = cytotoxicity"
1,COc1cc(NS(=O)(=O)c2ccc3c(c2)CC(=O)N3)cc(OC)c1OC,inactive: -17.1%
2,Cc1ccc(NC(=O)C2CCN(S(=O)(=O)c3ccc4c(c3)CCCC(=O)N4)CC2)c(Cl)c1,inactive: -2.97%
3,COc1ccccc1NC(=O)CSC1=Nc2ccccc2C2=NC(CC(=O)NCCc3ccccc3)C(=O)N12 (configuration not stated),inactive: -3.44%
4,CCOc1ccc(Nc2c(S(=O)(=O)c3ccc(C)cc3)cnc3cc(OC)c(OC)cc23)cc1,inactive: -22.9%
5,COc1ccc(CCNC(=O)c2ccc3c(c2)sc2nc(-c4ccc(C)cc4)cn23)cc1OC,inactive: 12.6%
6,CCCCC(=O)Nc1ccc2nc(SCC(=O)N3CCOCC3)sc2c1,inactive: -3.62%
7,CCOc1ccc(NC(=O)CN2CCN(CC(=O)Nc3ccc(N(CC)CC)cc3)CC2)cc1,inactive: -5.86%
8,COc1cc(NS(=O)(=O)c2ccc3[nH]c(=O)[nH]c3c2)cc(OC)c1,inactive: 4.18%
9,COc1cccc2c1Oc1ncccc1N(c1ccc(C(=O)NCc3ccccc3C)s1)C2,inactive: -21.8%
10,Cc1ccc(NC(=O)c2c(C)oc3ncn(C)c(=O)c23)cc1F,inactive: 1.81%
11,O=C(NCc1ccccc1Cl)c1ccc2c(c1)nnn2C1CCCC1,inactive: -10.5%
12,O=C(NC1(C(F)(F)F)C(=O)Nc2c1c(=O)[nH]c(=O)n2CCc1ccccc1)c1ccc(Cl)cc1 (configuration not stated),inactive: 0.999%
13,CCOc1ccc(NC(=O)c2cc(=O)c3cc(CC)ccc3o2)cc1,inactive: 5.8%
14,Cc1ccc(-c2noc(-c3ccccc3NC(=O)C3CC(=O)N(c4cccc(C)c4)C3)n2)cc1 (configuration not stated),inactive: 7.83%
15,CCc1ccc(C2=C(C)C(N3CCC(C(=O)Nc4cccc(OC)c4)CC3)=NS2(=O)=O)cc1,inactive: -0.122%
16,CCOc1ccc(NC(=O)CSc2nc(-c3cccs3)cc(C(F)(F)F)c2C#N)cc1,inactive: 5.85%
17,Oc1ccc(/C=C/c2nc(-c3ccccc3O)n(-c3ccccc3)n2)c(O)c1,inactive: -18.4%
18,CCCCCNC(=O)c1cc2c(=O)n3ccccc3nc2n1C,inactive: 20.1%
19,Clc1cccc(-n2ncc3c(NCCc4ccccc4)ncnc32)c1,inactive: -2.72%
20,CCCOc1ccc(C2C(=O)N(C3CCCCC3)CC(=O)N2CCc2ccccc2)cc1OC (configuration not stated),inactive: -18.9%
21,CN(C)C(=O)c1ccc(NC(=O)Cn2nc(-c3ccccc3)c3ccccc3c2=O)cc1,inactive: -4.92%
22,COc1cccc(CN2CCc3nc(Nc4ccc5c(c4)OCCO5)ncc3C2)c1OC,inactive: -2.47%
23,CC(=O)Nc1ccc(OCc2cc(=O)n3ccccc3n2)cc1,inactive: -1.1%
24,COc1ccccc1N1CCN(C(CNC(=O)C(=O)NCCN(C)C)c2cccnc2)CC1 (configuration not stated),inactive: 3.17%

row,Structure (SMILES),"activity change, negative = cytotoxicity"
1,CCOC(=O)c1c(NC(=O)COc2cc(C)ccc2C(C)C)sc2c1CCCC2,inactive: -2.76%
2,CCCCNC(=O)C(CC)Sc1nnc(-c2ccc(F)cc2)c(-c2ccc(F)cc2)n1 (configuration not stated),inactive: -16.7%
3,Cc1cccc(NC(=O)c2c(NC(=O)c3cccs3)sc3c2CCC(C)C3)c1 (configuration not stated),inactive: 1.92%
4,CC(C)CN(CC(C)C)c1nc(-c2ccc(Cl)cc2)nc2ccccc12,inactive: -1.64%
5,O=C(NCCCN1CCN(c2ccc(F)cc2)CC1)C1COc2ccccc2C1 (configuration not stated),inactive: -6.64%
6,CCc1ccc(NC(=O)c2ccc3c(=O)n4nc(Nc5ccccc5C)sc4nc3c2)cc1,inactive: -24.5%
7,COc1ccc(Cl)cc1NC(=O)Cn1c(=O)n(Cc2nc(C)no2)c(=O)c2ccccc21,inactive: -5.99%
8,CCOC(=O)c1c(C)oc2nc(C)nc(N(CC(C)C)CC(C)C)c12,inactive: 2.82%
9,COc1ccc(CCNC(=O)Cn2c(=O)cc(C(F)(F)F)c3c(C)nn(C)c32)cc1OC,inactive: -0.924%
10,Clc1ccc(Nc2c(-c3cccs3)nc3ccc(Cl)cn23)cc1,inactive: 6.91%
11,COc1ccccc1NC(=O)C1=C(C)Nc2nc(SCc3ccccc3F)nn2C1c1cccnc1 (configuration not stated),inactive: 28.1%
12,Cc1ccc(Cl)cc1NC(=O)c1sc2nc(-c3ccccc3)cn2c1C,inactive: 11.5%
13,CCc1cccc(NC(=O)c2cc3c(=O)[nH]c4ccccc4c3n2C)c1,inactive: 7.7%
14,Cc1ccc(C)c(CSC2=NC(C)(C)Nc3ccccc32)c1,inactive: 4.88%
15,CCOC(=O)c1sc2nc(C)n(CC(=O)Nc3cccc(Cl)c3)c(=O)c2c1C,inactive: 11.7%
16,COc1ccc(CN(C)S(=O)(=O)c2nnc(NC(=O)C(C)C)s2)cc1OC,inactive: -12.5%
17,Cc1ccc2c(n1)sc1c(=O)n(-c3cccc(C(F)(F)F)c3)nnc12,inactive: 5.04%
18,Clc1ccc(OCc2nc(-c3ccc(-n4cccc4)cc3)no2)cc1,inactive: 2%
19,COc1ccc2c(c1)c1c(c(=O)n(Cc3ccccc3)c(=O)n1CC(=O)Nc1cc(C)cc(C)c1)n2C,inactive: 9.95%
20,O=C(Nc1ccccc1OCc1cc(=O)n2ccccc2n1)c1cccc(Br)c1,inactive: 5.83%
21,Cc1cc(C)cc(NC(=O)CSc2oc(-c3ccco3)nc2S(=O)(=O)c2ccccc2)c1,inactive: 1.22%
22,Cc1cccc(N2CCN(C(=O)c3ccc4c(c3)c(C)c(C)n4C)CC2)c1C,inactive: -0.0335%
23,CCOc1ccc(NC(=O)N2CCC(CN3CCCCCC3)CC2)cc1,inactive: 0.953%
